The values below come from article PMC13083723 (Patterns, 2026).

In all, about 5,400 compounds went through this assay and about 190 (3.5%) showed an effect of 50% or more. The list shows a part of the results.

The subject of this assay is Vero-E6. The experiment in a line: primary screen, phospholipidosis by LipidTOX staining; higher = more effect of the substance. Particulars: 10 µM. The gist of the method: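 Single-concentration screen at 10 μM, with DMSO 0.1 v/v % and amiodarone 10 μM as controls. Read-out is LipidTOX Red phospholipid staining, which tolerates aldehyde fixation, in Vero-E6 cells.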
Consider `CCC(C/C=C/c1ccccc1)(c1ccccc1)N(C)CC1CC1` (stereo not shown), for which the result_ITMP is recorded as 27.7%.
Then `N=C(Nc1ccccc1)Nc1ccccc1`, with 0.43%; and `CCN1CCN(C(=O)Cc2ccc(Nc3ncc(F)c(Nc4ccc(C(=O)Nc5ccccc5Cl)cc4)n3)cc2)CC1`, with 8.87%.
Regarding `CCN(CC)CC1CCCCN1CC(=O)N1c2ccccc2C(=O)Nc2cccnc21` (stereo not shown), the result_ITMP is reported as -1.37%.
With `CC#CCC(C)[C@H](O)/C=C/[C@@H]1[C@H]2C/C(=C/CCCC(=O)O)C[C@H]2C[C@H]1O` (stereo partly shown), the result_ITMP is on record as 0.07%.
Take `NC(=O)Nc1sc(-c2ccc(F)cc2)cc1C(N)=O`: the result_ITMP is -0.84%.
As for `Cn1c2cc(S(C)=O)sc2c2cnn(Cc3cccc(N)c3)c(=O)c21` (stereo not shown), the result_ITMP is -1.69%.
With `CCN(CC)CCNC(=O)c1ccc(I)cc1`, the result_ITMP is given as 2.74%.
For `CC(O)(CS(=O)(=O)c1ccc(F)cc1)C(=O)Nc1ccc(C#N)c(C(F)(F)F)c1` (stereo not shown) the value was 1.82%; for `C[C@@H]1O[C@@H](OC[C@H]2O[C@@H](Oc3c(-c4ccc(O)c(O)c4)oc4cc(O)cc(O)c4c3=O)[C@H](O)[C@@H](O)[C@@H]2O)[C@H](O)[C@H](O)[C@H]1O`, -1.31%.
Take `CCCCC(CC)CCC(CC(C)C)OS(=O)(=O)[O-]` (stereo not shown): the result_ITMP is reported as -1.42%.
Then `CCCC(=O)Nc1ccc(OCC(O)CNC(C)C)c(C(C)=O)c1` (stereo not shown), with -4.7%; and `C[C@]12Cc3cn[nH]c3C[C@@H]1CC[C@@H]1[C@@H]2CC[C@@]2(C)[C@H]1CC[C@]2(C)O`, with -1.1%.
For `CN(C)C(=O)N[C@H]1CC[C@H](CCN2CCN(c3cccc(Cl)c3Cl)CC2)CC1` the value was -1.5%; for `N[C@@H]1CCN(O)C1=O`, -6.32%; for `CC(=O)Nc1ccc(OCC(O)CNC(C)C)cc1` (stereo not shown), -0.54%.
As to `O=C1NN(C(=O)Nc2ccc(Br)cc2)[C@@H](c2ccccc2)[C@@H]1c1ccccc1`, the result_ITMP is on record as 11.2%.
For `CCn1cnc(C(=O)NC)c1C(=O)NC` the value was -1.53%; for `C/C=C\C1=C(C(=O)O)N2C(=O)C(NC(=O)C(N)c3ccc(O)cc3)C2SC1` (stereo not shown), 2.54%.
Then `Cc1oc(=O)oc1CN1CCN(c2cc3c(cc2F)c(=O)c(C(=O)O)c2n3C(C)S2)CC1` (stereo not shown), with -2.04%; and `C/C(O)=C(\C#N)C(=O)Nc1ccc(C(F)(F)F)cc1`, with 0.72%; and `COc1nc(C)cnc1NS(=O)(=O)c1cccnc1-c1ccc(-c2nnco2)cc1`, with -5.68%.
Then `C/C(=N\NC(=N)N)c1cc(NC(=O)CCCCCCCCC(=O)Nc2cc(/C(C)=N/NC(=N)N)cc(/C(C)=N/NC(=N)N)c2)cc(/C(C)=N/NC(=N)N)c1`, with -7.21%; and `OC[C@H]1O[C@@H]2O[C@H]3[C@H](O)[C@@H](O)[C@@H](O[C@H]4[C@H](O)[C@@H](O)[C@@H](O[C@H]5[C@H](O)[C@@H](O)[C@@H](O[C@H]6[C@H](O)[C@@H](O)[C@@H](O[C@H]7[C@H](O)[C@@H](O)[C@@H](O[C@H]8[C@H](O)[C@@H](O)[C@@H](O[C@H]1[C@H](O)[C@H]2O)O[C@@H]8CO)O[C@@H]7CO)O[C@@H]6CO)O[C@@H]5CO)O[C@@H]4CO)O[C@@H]3CO`, with -4.2%; and `Cc1cc(OI)c(C(C)C)cc1-c1cc(C(C)C)c(OI)cc1C`, with 1.31%.
As for `Cc1nc(N(C)C(=O)Cc2ccc(-c3ccccn3)cc2)sc1S(N)(=O)=O`, the result_ITMP was found to be 1%.
For `CC(=O)OCC(=O)[C@@]12OC3(CCCC3)O[C@@H]1C[C@H]1[C@@H]3CCC4=CC(=O)C=C[C@]4(C)[C@@]3(F)[C@@H](O)C[C@@]12C` the value was -2.65%; for `COc1ccc(CC(=O)NC(N/C(=N/C#N)Nc2cccc3ncccc23)C(C)(C)C)cc1OC` (stereo not shown), -2%; for `CCN1CCCC1=O`, 8.03%.
For `NS(=O)(=O)Oc1ccc2c3c(c(=O)oc2c1)CCCCC3` the value was 0.16%; for `N[C@@H](CC(=O)N1CCn2c(nnc2C(F)(F)F)C1)Cc1cc(F)c(F)cc1F`, 4.25%.
For `CO/N=C(/C(=O)N[C@@H]1C(=O)N2C(C(=O)[O-])=C(CSc3nc(=O)c([O-])nn3C)CS[C@H]12)c1csc(N)n1` the value was -8.18%; for `Cn1cc(C2=C(c3cn(CCCSC(=N)N)c4ccccc34)C(=O)NC2=O)c2ccccc21`, 15.8%; for `O=C(NCc1ccc2c(c1)OCO2)c1c(Cl)cccc1Cl`, -2%.
Regarding `COCCCOc1ccnc(CS(=O)c2nc3ccccc3[n-]2)c1C` (stereo not shown), the result_ITMP was -0.77%.
Then `C[C@@H]1O[C@@H](O[C@H]2[C@H](Oc3cc(O)c4c(c3)O[C@H](c3ccc(O)cc3)CC4=O)O[C@H](CO)[C@@H](O)[C@@H]2O)[C@H](O)[C@H](O)[C@H]1O`, with 3.7%.
Then `CCOC(=O)c1cncn1[C@H](C)c1ccccc1`, with -4.52%; and `COC(=O)[C@@H](N)Cc1ccc(O)c(O)c1`, with -5.89%.
For the compound `C[C@]12CCC(=O)C=C1C=C[C@@H]1[C@@H]2CC[C@@]2(C)[C@H]1CC[C@@]21CCC(=O)O1`, the result_ITMP was determined as 6.9%.
As to `CC1CCc2c(cc(Br)c(F)c2Br)N1C=O` (stereo not shown), the result_ITMP is on record as -1.34%.
Take `C[C@]12CC[C@@H]3c4ccc(O)cc4C[C@@H](CCCCCCCCCS(=O)CCCC(F)(F)C(F)(F)F)C3[C@@H]1CC[C@@H]2O` (stereo partly shown): the result_ITMP was -0.13%.
Consider `Cc1cc2c(cc1CC(=O)c1sccc1S(=O)(=O)[N-]c1onc(C)c1Cl)OCO2`, for which the result_ITMP was -1.86%.
As to `CC1(C)CC(=O)c2c(C(F)(F)F)nn(-c3ccc(C(N)=O)c(N[C@H]4CC[C@H](OC(=O)CN)CC4)c3)c2C1`, the result_ITMP is listed as 1.95%.
For the compound `CS(=O)(=O)Oc1ccc2c(NC(N)=O)c(C(=O)c3ccc(Cl)cc3Cl)oc2c1`, the result_ITMP is reported as -6.53%.
For `CC1(C)[C@@H](O)CC[C@]2(C)[C@H]3C(=O)C=C4[C@@H]5C[C@@](C)(C(=O)O)CC[C@]5(C)CC[C@@]4(C)[C@]3(C)CC[C@@H]12`, the result_ITMP is listed as -4.77%.
Then `CN(C)c1ccc(/C=C2\CCCN=C2c2cccnc2)cc1`, with 9.85%; and `Nc1ccncc1N`, with -1.71%; and `CC[C@@H](CO)NC(=O)[C@@H]1C=C2c3cccc4[nH]cc(c34)C[C@H]2N(C)C1`, with 5.79%.
Then `O=C(O)c1ccc(NC(=O)[C@H](Cc2ccc(O)cc2)NC(=O)c2ccccc2)cc1`, with -5.89%; and `Oc1ccc2ccccc2c1Cc1c(O)ccc2ccccc12`, with -2.53%; and `CCC1(C2=NCCN2)Cc2ccccc2O1` (stereo not shown), with 0.77%.
For the compound `O[C@@](Cc1nc(CC2(C(F)(F)F)CC2)c[nH]1)(c1ccc(-n2cccn2)cc1)C(F)(F)F`, the result_ITMP was found to be 0.81%.
Then `O=c1[nH]c2ccccc2n1C1CCN(CCOc2ccccc2)CC1`, with 6.68%; and `NNC(=O)CN1C(=O)CN=C(c2ccccc2)c2cc(Br)ccc21`, with 2.33%; and `CCOC(=O)c1ncn2c1[C@@H]1CCCN1C(=O)c1cc(OC)ccc1-2`, with -2.2%.
Take `CC(C)(C)NCC(O)COc1cccc2c1C[C@H](O)[C@H](O)C2` (mixture of isomers): the result_ITMP is on record as -2.49%.
With `O=C(O)c1ccc(-n2nc(-c3ccccc3O)nc2-c2ccccc2O)cc1`, the result_ITMP was -0.76%.
Consider `CCC(CC)(NC(=O)C(C)C)C(=O)N[C@@H](CCCNC(=N)N)C(=O)NC1(C(=O)NC(c2ccc(F)cc2)c2ccc(F)cc2)CCCC1`, for which the result_ITMP is 1.23%.
Then `O=C(Nc1nc(-c2cc(Cl)cs2)c(N2CCN(C3CCCCC3)CC2)s1)c1cnc(N2CCC(C(=O)O)CC2)c(Cl)c1`, with -2.43%; and `COc1cc(Cc2cnc(N)nc2N)c(C(C)C)cc1OC`, with -0.7%.
For `NC(=O)OCC(O)COc1ccc(Cl)cc1` (stereo not shown) the value was 0.94%; for `N#CCCCSC(=N)N`, -2.54%; for `O=C(NCc1cccc(O)c1)Nc1nc(-c2ccncc2)cs1`, 4.6%.
Then `Cc1nc[nH]c1CCN`, with 0.11%; and `COC(=O)CCc1ccc(OCC(O)CNC(C)C)cc1` (stereo not shown), with -2.41%.
On to `COCCOC(=O)C1=C(C)NC(C)=C(C(=O)OC(C)C)C1c1cccc([N+](=O)[O-])c1` (stereo not shown), for which the result_ITMP is on record as -4.25%.
For `COc1c(C)c2c(c(O)c1C/C=C(\C)CCC(=O)OCCN1CCOCC1)C(=O)OC2` the value was 18.6%; for `CN1C(C(=O)Nc2ccccn2)=C(O)c2ccccc2S1(=O)=O`, -3.43%; for `N#C/C(=C\c1cccn1S(=O)(=O)c1cccc([N+](=O)[O-])c1)S(=O)(=O)c1ccc(F)cc1`, 0.43%.
For `CN1CCC(CNc2ccc3ncc(-c4cccc(OC(F)(F)F)c4)n3n2)CC1`, the result_ITMP is given as 62.4%.
Take `NC(=O)c1ccc[n+]([C@@H]2O[C@H](COP(=O)([O-])OP(=O)(O)OC[C@H]3O[C@@H](n4cnc5c(N)ncnc54)[C@H](O)[C@@H]3O)[C@@H](O)[C@H]2O)c1`: the result_ITMP is -1.76%.
Then `CNCCC=C1c2ccccc2C=Cc2ccccc21`, with 42.4%.
For the compound `CC(C)[C@H](NS(=O)(=O)c1ccc(-c2ccc(Br)cc2)cc1)C(=O)O`, the result_ITMP is -5.95%.
Then `CC(=O)O[C@H]1C[C@@H]2CC[C@@H]3[C@H](CC[C@@]4(C)[C@H]3C[C@H](N3CC[N+](C)(C)CC3)[C@@H]4OC(C)=O)[C@@]2(C)C[C@@H]1N1CC[N+](C)(C)CC1`, with 0.99%.
Then `NCC(=O)CCC(=O)O`, with 9.37%; and `COc1ccc(CN(CCN(C)C)c2ncccn2)cc1`, with -9.04%.
For `O=C(/C=C/c1cccc(F)c1)NC1CC1` the value was -0.97%.
On to `Cc1sc(C)c2c1CCC=C2c1c[nH]cn1`, for which the result_ITMP is -0.01%.
Consider `Cc1cc2c(OCC(CNC(C)(C)C)OC(=O)c3ccccc3)cccc2[nH]1` (stereo not shown), for which the result_ITMP is given as 3.74%.
For `CONC(=N)c1ccc(-c2ccc(-c3ccc(C(=N)NOC)cc3)o2)cc1` the value was 0.35%; for `Cc1ccc(Sc2ccccc2N2CCNCC2)c(C)c1`, 57.3%.
Then `CCC[N+]12C3C[C@H](C4C(O)[C@]5(C[C@@H]41)c1ccccc1N(C)[C@@H]35)[C@H](CC)[C@H]2O` (stereo partly shown), with -5.06%.
